Data: PubChem BioAssay AID2202238 (Ras Initiative Chemistry Research Team, Frederick National …, 2025)
This is one part of the list. Shown are side measurements of this screen, not its main read-out; they come without a call.

Biological target: GTPase KRas (Homo sapiens) (UniProt P01116)
Experiment: Cysteine mutants labelled by reactive fragments (mass read-out) (AID 2202238)
Design: protein at 5 µM with 500 µM competing thiol for 1.5 h
Details: KRAS G12D cysteine mutants, disulfide tethering, MALDI-TOF labeling, stronger effect = higher value, fragment at 500 µM
[1] = measured here: G60C mutant labeling
[2] = measured here: G75C mutant labeling
[3] = measured here: H94C mutant labeling
[4] = measured here: I36C mutant labeling
[5] = measured here: L120C mutant labeling
[6] = measured here: M67C mutant labeling
[7] = measured here: M72C mutant labeling
[8] = measured here: N26C mutant labeling
[9] = measured here: N86C mutant labeling
[10] = measured here: P121C mutant labeling
[11] = measured here: S122C mutant labeling
[12] = measured here: S136C mutant labeling

Sequence of UniProt P01116 (P01116 whole entry, looked up, the tested form may be a part): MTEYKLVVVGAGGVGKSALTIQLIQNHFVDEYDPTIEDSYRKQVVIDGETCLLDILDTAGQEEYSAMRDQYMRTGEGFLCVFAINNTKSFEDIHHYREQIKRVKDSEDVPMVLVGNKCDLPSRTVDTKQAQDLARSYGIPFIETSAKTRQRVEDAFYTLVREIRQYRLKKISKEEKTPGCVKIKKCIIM

SMILES | percent labeling [1] [%] | percent labeling [2] [%] | percent labeling [3] [%] | percent labeling [4] [%] | percent labeling [5] [%] | percent labeling [6] [%] | percent labeling [7] [%] | percent labeling [8] [%] | percent labeling [9] [%] | percent labeling [10] [%] | percent labeling [11] [%] | percent labeling [12] [%]
O=C(NCCS)C1CC(=O)N(Cc2ccc(F)cc2F)C1 (configuration not stated) | 42.5 | 16.6 | 37.4 | 36.2 | 38.3 | 46.7 | 45 | 48.2 | 27.8 | 35.2 | 36.4 | 56.9
Cc1nc2nc[nH]n2c(=O)c1CCC(=O)NCCS | 16.8 | 6.2 | 24.5 | 19.3 | 35.9 | 22.6 | 8 | 29.3 | 25 | 29 | 32.1 | 31.3
O=C(CN1C(=O)NC(c2cccs2)(C2CC2)C1=O)NCCS (configuration not stated) | 33.4 | 9.5 | 25.7 | 22.4 | 43.9 | 36 | 25.4 | 29.8 | 21.4 | 25.3 | 26.9 | 45
O=C(COC(c1ccccc1)c1ccccc1)NCCS | 26.4 | 15.7 | 19.8 | 12.8 | 24.6 | 14.1 | 31.1 | 19.6 | 11.5 | 14.4 | 10.4 | 39.6
CN1C(=O)CCc2cc(C(=O)NCCS)ccc21 | 43.3 | 24.6 | 33 | 26.5 | 38.6 | 37.1 | 63.1 | 50.9 | 24.5 | 26.7 | 28.1 | 48.1
CN(C)C(C(=O)NCCS)c1ccc(Cl)cc1 (configuration not stated) | 7.6 | 0 | 5.5 | 7.6 | 13.5 | 8.9 | 0 | 3.9 | 0 | 5.2 | 4 | 10.9
O=C(NCCS)c1ccn(Cc2ccccc2)c1 | 30.1 | 18.4 | 18.2 | 11.8 | 24.2 | 23 | 33.9 | 28.9 | 13.4 | 15.4 | 15.5 | 30.1
O=C(CCS)NCCn1c(=O)[nH]c2cccnc21 |  | 9.9 | 27.1 | 40.5 | 31.2 | 31.8 | 18.1 |  | 12.9 | 32.2 | 34.4 | 47.3
O=C(NCCS)c1cccc2cnccc12 | 48 | 27.6 | 45.8 | 35.8 | 34.8 | 46.1 | 42 | 54.5 | 36.3 | 38.5 | 34.7 | 56.7
Cc1nc(-c2c(C)noc2C)sc1C(=O)NCCS | 27 | 10.8 | 20 | 15.1 | 17.8 | 19.6 | 37.6 | 35.7 | 11.1 | 15.9 | 13.6 | 39
O=C(NCCS)c1ccc(C(=O)N2CCOCC2)cc1 | 30.6 | 14.2 | 32.9 | 30.5 | 44.6 | 31.8 | 28.5 | 40.1 | 26.5 | 31.2 | 30 | 42.7
Cn1cc(C(=O)NCCS)c(C(F)(F)F)c1 | 44.4 | 27.2 | 43.8 | 23.8 | 46.2 | 34.7 | 47.1 | 42.3 | 48.9 | 31.2 | 30.1 | 46.3
O=C(Cn1cnc2ccc(Br)cc2c1=O)NCCS | 22.5 | 7.1 | 13 | 11.4 | 17 | 9.8 | 19.9 | 33.3 | 9.8 | 8.7 | 5.4 | 9
O=C(CCS)Nc1cn(CCOCC(F)(F)F)nc1-c1ccccn1 |  | 9.8 | 10.9 | 9.1 | 10 | 12.2 | 26.8 |  | 4.8 | 10.4 | 9.4 | 14.5
O=C(CCNC(=O)Nc1ccc(Br)cc1)NCCS | 18.6 | 4.5 | 19.3 | 6.2 | 6.1 | 7.8 | 9.6 | 24.5 | 5.2 | 5.6 | 3.2 | 9.6
NC(=O)c1cn(C2CN(C(=O)CCS)C2)nn1 |  | 6.6 | 18.7 | 30.5 | 20.7 | 29.9 | 13.1 |  | 17.2 | 30.2 | 27.3 | 38.7
Cc1c(Br)cc(C(=O)NCCS)c(=O)n1C | 47 | 21.8 | 33 | 24.2 | 34.5 | 37.7 | 73.4 | 37.8 | 20.4 | 21.3 | 21.4 | 48
O=C(NCCS)c1nn(-c2cc(Cl)ccc2F)c2c1CCC2 | 19 | 14 | 14.4 | 6.6 | 11 | 6.6 | 34.6 | 16.8 | 5.5 | 8.7 | 4.2 | 9.7
O=C(CCS)N1CCC2(CC1)Cc1ccccc1NC2=O |  | 20.2 | 37.3 | 54.3 | 40 | 54.8 | 40.4 |  | 28.6 | 33.5 | 31.5 | 73.2
CCn1cc(-c2cc(C(F)(F)F)n(CCCNC(=O)CCS)n2)cn1 |  | 14.4 | 23.2 | 21.4 | 19.4 | 17.9 | 27.4 |  | 21 | 24.5 | 21.9 | 36.5
O=C(CCS)NC1CCN(CCOc2ccc(Cl)cc2)CC1 |  | 16.2 | 34 | 52.1 | 22.4 | 39.4 | 22.9 |  | 25.7 | 26 | 18 | 41.9
Cc1ccc(-n2ncc(NC(=O)CCS)c2C)cc1 |  | 11.6 | 31.1 | 22.7 | 29.3 | 27.2 | 39.7 |  | 18 | 25.9 | 27.3 | 40.4
O=C(NCCS)C1(c2c(Cl)cccc2Cl)CCC1 | 55.6 | 20.7 | 27.2 | 15.9 | 27.8 | 20.4 | 58.3 | 28.2 | 16.2 | 19.8 | 13.8 | 26.2
